Laboratory results: PMC6938348 (PLoS ONE, 2019)

How the values were obtained:
[1] = target: T1, Her2 on cells (SKOV3, JIMT-1, MCF7) (Homo sapiens (endogenous in SKOV3, …, UniProt P04626)); test: cell-based or functional assay
[2] = target: T1, Her2 on cells (SKOV3, JIMT-1, MCF7); test: cell-based or functional assay; remark: listed apart in the source
[3] = target: T1, Her2 on cells (SKOV3, JIMT-1, MCF7); test: flow cytometry on cells; saturation binding of full-size antibodies on live low-Her2 MCF7 cells, 4°C 2 h, 0 to 200 nM or 1 μM, washed, anti-human Fc AlexaFluor488-(Fab')2 detection; apparent KD; details: one partner purified
[4] = target: T1, Her2 on cells (SKOV3, JIMT-1, MCF7); test: flow cytometry on cells; saturation binding of full-size antibodies on live high-Her2 SKOV3 cells, 4°C 2 h, 0 to 200 nM or 1 μM, washed, anti-human Fc AlexaFluor488-(Fab')2 detection; apparent KD; details: one partner purified
soluble Her2 ectodomain [5] = target: T2, soluble Her2 ectodomain (Homo sapiens (assumed; species and …, UniProt P04626); test: SPR; antibody captured on an anti-hFc CM-5 surface, soluble Her2 ectodomain flowed (monovalent binding); single cycle kinetics in duplicate, 25°C, PBS with 3.4 mM EDTA and 0.05% Tween 20; 1:1 binding model; Biacore T200; details: both partners purified
T2 construct: Her2 ectodomain, soluble

soluble Her2 ectodomain [6] = target: T2, soluble Her2 ectodomain; test: as above; details: both partners purified; remark: listed apart in the source
soluble Her2 ectodomain [7] = target: T2, soluble Her2 ectodomain; test: as above; details: both partners purified; remark: listed apart in the source
[8] = target: T1, Her2 on cells (SKOV3, JIMT-1, MCF7); test: cell-based or functional assay; remark: listed apart in the source

Row | internalization EC50, JIMT-1 cells [1] [nM] | Kd [3] [nM] | Kd [4] [nM] | kon (soluble Her2 ectodomain [5]) [M⁻¹ s⁻¹] | Kd (soluble Her2 ectodomain [6]) [nM] | koff (soluble Her2 ectodomain [7]) [s⁻¹] | kon (soluble Her2 ectodomain [7]) [M⁻¹ s⁻¹] | Binder | IC50 of cytotoxicity, indirect ADC screen (DM1-conjugated secondary antibody), JIMT1 cells [2] [nM] | IC50 of cytotoxicity, indirect ADC screen (DM1-conjugated secondary antibody), MCF7 cells [2] [nM] | IC50 of cytotoxicity, indirect ADC screen (DM1-conjugated secondary antibody), SKOV3 cells [2] [nM] | IC50 of cytotoxicity, indirect ADC screen (MMAE-conjugated secondary antibody), JIMT1 cells [2] [nM] | IC50 of cytotoxicity, indirect ADC screen (MMAE-conjugated secondary antibody), MCF7 cells [2] [nM] | IC50 of cytotoxicity, indirect ADC screen (MMAE-conjugated secondary antibody), SKOV3 cells [2] [nM] | IC50 of cytotoxicity, antibody directly conjugated to DM1, SKOV3 cells [8] [nM] | IC50 of cytotoxicity, antibody directly conjugated to PNU, JIMT1 cells [8] [nM] | IC50 of cytotoxicity, antibody directly conjugated to PNU, MCF7 cells [8] [nM] | IC50 of cytotoxicity, antibody directly conjugated to PNU, SKOV3 cells [8] [nM]
1 | < 1 | 0.04 | 0.9 | 6.7e+06 | 1.06 | 7e-05 | 66000 | Herceptin full-size antibody variant 12–9 (H-D98F, H-D31K, L-D28K) (antibody, V domains shown, as the heavy chain of m2 with the stated changes; as the light chain of m2 with the stated change; FSA; IgG1 is surmised (Synagis is called the IgG1 isotype control); source: CHO-3E7, co-transfected, purified (MabSelect Sure); copies: 2 + 2) VH: not shown VL: not shown | 1.3 | 3.1 | 0.0004 | 0.1 | 0.5 | 0.014 |  |  |  | 
2 | < 1 | 0.02 | 0.8 |  | 0.77 | 7.7e-05 | 100000 | Herceptin full-size antibody variant 11–9 (H-D98F, H-D31M, L-D28K) (antibody, V domains shown, as the heavy chain of m2 with the stated changes; as the light chain of m2 with the stated change; FSA; IgG1 is surmised (Synagis is called the IgG1 isotype control); source: CHO-3E7, co-transfected, purified (MabSelect Sure); copies: 2 + 2) VH: not shown VL: not shown | 6.7 | 3 | 0.0001 | 0.2 | 0.4 | 0.008 | 0.003 | 0.08 | 1.24 | 0.041
